# Results taken from PubChem BioAssay AID1345082 (National Center for Advancing Translational Sciences (NCATS), 2018).
# In all, about 94,000 compounds went through this assay and about 4,000 (4.3%) were called active. This list was built around the results that the source calls inconclusive (neither active nor inactive); the mix of calls is not that of the screen. The call rests on the fitted dose curve; in most records, active means well fitted inhibition curve with a large enough effect; inconclusive means small, poorly fitted or top-dose-only effect; inactive means no such curve, though single readings can be large or run the other way. Potencies beside an inconclusive call are fits to weak or partial responses and may not hold up.
# Test: Cytotoxic Profiling in NIH 3T3 Cell Line of Diverse Libraries Using Quantitative High-Throughput Screening; further: nearly all actives have a fitted effect of over 55% in size
# Conditions: NIH 3T3 viability, CellTiter-Glo ATP luminescence, 48-72 h; activity change, negative = cytotoxicity: at 96.7 µM (top of the series) unless noted; series mostly up to 96.7 µM
# Outline: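 Cells were seeded at 400 per well, treated with pin-transferred compound, and kept 48 or 72 hr at 37 °C before CellTiter-Glo addition and luminescence imaging of cellular ATP.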
# On the % scale 0 is the no-effect control and ±100 the full control effect; potency means the concentration at half of the fitted maximal effect; tags describe the fitted curve by direction and shape.
SMILES,Potency,"activity change, negative = cytotoxicity",outcome
O=C(Nc1cccc(-c2nnc3n2CCCC3)c1)c1cccc(Cl)c1,"inconclusive: 39.8 µM [inhibitor, partial curve, poor fit]",–,–
CN(Cc1cccc2ccccc12)C1CCCc2ccccc21 (centres undefined),–,inactive: -7.36% [at 138 µM],–
O=C1NCCCCCCN(C(=O)c2cccnc2)[C@H]2C[C@H](c3nc(Cc4ccccc4)no3)C[C@@H]12,"inconclusive: 39.8 µM [inhibitor, partial curve, poor fit]",–,–
COc1ccc(-c2ccc(C(=O)NCC(F)(F)F)c(Cl)c2)nn1,–,inactive: -24.2% [at 138 µM],–
CCCCN1C(=O)c2ccccc2C(C(=O)Nc2ccccn2)C12CCCC2 (centres undefined),"inconclusive: 56.2 µM [inhibitor, partial curve, poor fit]",–,–
COc1ccc(C(=O)NCc2nnc3ccc(-c4ccc(C)c(C)c4)nn23)cc1,"inconclusive: 70.8 µM [inhibitor, single point]",–,–
COc1cccc(Nc2cc(-c3cccs3)nc3c(C)noc23)c1,active: 79.4 µM,–,–
c1ccc(-n2cc(CN3CCN(c4nc5ccccc5o4)CC3)nn2)cc1,"inconclusive: 79.4 µM [inhibitor, partial curve, poor fit]",–,–
Cc1ccc(S(=O)(=O)N2CCCC(CCC(=O)NCc3ccccc3)C2)cc1 (centres undefined),"inconclusive: 50.1 µM [inhibitor, partial curve, poor fit]",–,–
N#Cc1ccc(C2c3nc[nH]c3CCN2Cc2ccc3ccccc3n2)cc1 (centres undefined),"inconclusive: 44.7 µM [inhibitor, partial curve, poor fit]",–,–
Cn1ncc2c(C(=O)N3CCN(Cc4ccccc4)CC3)cc(-c3ccc(Cl)cc3Cl)nc21,"inconclusive: 44.7 µM [inhibitor, partial curve, poor fit]",–,–
CCN(Cc1ccccc1)C(=O)CC1CCCN(c2cn[nH]c(=O)c2)C1 (centres undefined),–,inactive: -12.6%,–
CC(C)(C)CC(=O)NC[C@H]1OC[C@@H](NCc2ncc[nH]2)[C@@H]1O,–,inactive: 4.08% [at 138 µM],–
O=C(c1ccccc1)N1CCCC(C(=O)N2CCC(N3Cc4cccn4C3=O)CC2)C1 (centres undefined),–,inactive: -16.3%,–
COCCN1Cc2ccc(NCC(C)C)nc2C(C)(C(=O)NC2CCC2)C1 (centres undefined),–,inactive: -28.2% [at 138 µM],–
CN1CCC(Nc2ccc3c(n2)CN(Cc2ccc(F)cc2)C(=O)CO3)CC1,"inconclusive: 56.2 µM [inhibitor, partial curve, poor fit]",–,–
CC(=O)NCC(=O)NCC1CCN(c2cc(-c3ccc(F)cc3)[nH]n2)CC1,–,–,inactive
COCCN1C(=O)CCc2cc(NC(=O)c3ccc(Cl)s3)ccc21,"inconclusive: 70.8 µM [inhibitor, single point]",–,–
Cn1nc2n(c1=O)CCC(NC(=O)c1cncc(Br)c1)CC2 (centres undefined),–,inactive: -9.13%,–
